According to the supplement of paper PMC4967469:
Lines with a small IC50 respond at low doses; a limit (>, <) means that the fit lies beyond the doses tested. AUC is the area under the same curve over the 256-fold range up to the top dose, as a fraction; values near 1 show little effect. A top dose marked as inferred was calculated from the reported fits.

Assays:
PD-173074 = compound: CCN(CC)CCCCNc1ncc2cc(-c3cc(OC)cc(OC)c3)c(NC(=O)NC(C)(C)C)nc2n1 [PD-173074]; assay: Viability of human cancer cell lines after 72 h of drug (GDSC screen); conditions: top dose 2 µM; top dose inferred
Method: (§1)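 Human cancer cell lines in 384-well plates, medium with 10% serum, drug for 72 h over a 256-fold dose range (nine 2-fold or five 4-fold steps up to the top dose). Adherent lines were fixed and stained with the nucleic acid dye Syto60, suspension lines read with resazurin; signal relative to control wells, capped at 0 and 100%. One two-parameter sigmoid per drug and line, fitted in a mixed model over all curves with the slope shared within a line.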

SB590885 = compound: CN(C)CCOc1ccc(-c2nc(-c3ccncc3)c(-c3ccc4c(c3)CC/C4=N\O)[nH]2)cc1 [SB590885]; assay: as above; conditions: top dose 5 µM; top dose inferred
Method: as §1

| Cell Line | AUC (PD-173074) | IC50 (PD-173074) [nM] | AUC (SB590885) | IC50 (SB590885) [nM] |
| --- | --- | --- | --- | --- |
| HSC-2 (head and neck, adherent) | 0.986 | > 2000 | 0.983 | > 5000 |
| HT55 (large intestine, adherent) | 0.99 | > 2000 | 0.99 | > 5000 |
| HT-3 (cervix, adherent) | 0.987 | > 2000 | 0.987 | > 5000 |
| HT-115 (large intestine, adherent) | 0.991 | > 2000 | 0.991 | > 5000 |
| HT-1197 (bladder, adherent) | 0.985 | > 2000 | 0.985 | > 5000 |
| HT-1376 (bladder, adherent) | 0.985 | > 2000 | 0.985 | > 5000 |
| HeLa (cervix, adherent) | 0.945 | > 2000 | 0.989 | > 5000 |
| Hep 3B2_1-7 (liver, adherent) | 0.604 | 241 | 0.875 | 4900 |
| Hey (ovary, adherent) | 0.985 | > 2000 | 0.857 | 3720 |
| Hs633T (fibrosarcoma, adherent) | 0.987 | > 2000 | 0.939 | > 5000 |
| Hs683 (glioma, adherent) | 0.957 | > 2000 | 0.979 | > 5000 |
| Hs746T (stomach, adherent) | 0.979 | > 2000 | 0.974 | > 5000 |
| Hs766T (pancreas, adherent) | 0.967 | > 2000 | 0.978 | > 5000 |
| Hs939-T (melanoma, adherent) | 0.984 | > 2000 | 0.862 | 4940 |
| Hs-578-T (breast, adherent) | 0.877 | > 2000 | 0.987 | > 5000 |
| HuCCT1 (biliary tract, adherent) | 0.973 | > 2000 | 0.973 | > 5000 |
| HuH-7 (liver, adherent) | 0.82 | 1150 | 0.864 | 4360 |
| HuO9 (osteosarcoma, adherent) | 0.887 | > 2000 | 0.951 | > 5000 |
| HuO-3N1 (osteosarcoma, adherent) | 0.935 | > 2000 | 0.982 | > 5000 |
| HuP-T3 (pancreas, adherent) | 0.981 | > 2000 | 0.976 | > 5000 |
| HuP-T4 (pancreas, adherent) | 0.984 | > 2000 | 0.984 | > 5000 |

| Cell Line | AUC (PD-173074) | IC50 (PD-173074) [nM] | AUC (SB590885) | IC50 (SB590885) [nM] |
| --- | --- | --- | --- | --- |
| IA-LM (large cell lung carcinoma, adherent) | 0.971 | > 2000 | 0.96 | > 5000 |
| IGR-1 (melanoma, adherent) | 0.99 | > 2000 | 0.931 | > 5000 |
| IGROV-1 (ovary, adherent) | 0.871 | > 2000 | 0.977 | > 5000 |
| IHH-4 (thyroid, semi-adherent) | 0.993 | > 2000 | 0.848 | 2650 |
| IPC-298 (melanoma, adherent) | 0.982 | > 2000 | 0.961 | > 5000 |
| JEG-3 (urogenital system, adherent) | 0.97 | > 2000 | 0.982 | > 5000 |
| JEKO-1 (B-cell lymphoma, suspension) | 0.883 | 1990 | 0.853 | 3660 |
| JHH-1 (liver, adherent) | 0.98 | > 2000 | 0.981 | > 5000 |
| JHH-2 (liver, adherent) | 0.979 | > 2000 | 0.982 | > 5000 |
| JHH-4 (liver, adherent) | 0.955 | > 2000 | 0.987 | > 5000 |
| JHH-7 (liver, adherent) | 0.925 | > 2000 | 0.907 | > 5000 |
| JHOS-2 (ovary, adherent) | 0.939 | > 2000 | 0.956 | > 5000 |
| JHOS-3 (ovary, adherent) | 0.984 | > 2000 | 0.984 | > 5000 |
| JHOS-4 (ovary, adherent) | 0.98 | > 2000 | 0.98 | > 5000 |
| JHU-011 (head and neck, adherent) | 0.923 | > 2000 | 0.899 | > 5000 |
| JHU-022 (head and neck, adherent) | 0.972 | > 2000 | 0.979 | > 5000 |
| JHU-029 (head and neck, adherent) | 0.959 | > 2000 | 0.969 | > 5000 |
| JIMT-1 (breast, adherent) | 0.97 | > 2000 | 0.921 | > 5000 |
| Jurkat (T-cell leukaemia, suspension) | 0.992 | > 2000 | 0.952 | > 5000 |
| K2 (melanoma, adherent) | 0.971 | > 2000 | 0.797 | 3180 |
| KARPAS-620 (haematopoietic neoplasm, suspension) | 0.991 | > 2000 | 0.99 | > 5000 |
